About 2,200 (0.71%) of roughly 310,000 compounds showed an effect of 50% or more. Effects have a minus sign here. The list shows a part of the results.
target: human ether-à-go-go-related gene (hERG) potassium channel (human, UniProt Q12809); assay: primary screen, population patch clamp on CHO cells stably expressing hERG
Sequence (Q12809 whole entry, looked up): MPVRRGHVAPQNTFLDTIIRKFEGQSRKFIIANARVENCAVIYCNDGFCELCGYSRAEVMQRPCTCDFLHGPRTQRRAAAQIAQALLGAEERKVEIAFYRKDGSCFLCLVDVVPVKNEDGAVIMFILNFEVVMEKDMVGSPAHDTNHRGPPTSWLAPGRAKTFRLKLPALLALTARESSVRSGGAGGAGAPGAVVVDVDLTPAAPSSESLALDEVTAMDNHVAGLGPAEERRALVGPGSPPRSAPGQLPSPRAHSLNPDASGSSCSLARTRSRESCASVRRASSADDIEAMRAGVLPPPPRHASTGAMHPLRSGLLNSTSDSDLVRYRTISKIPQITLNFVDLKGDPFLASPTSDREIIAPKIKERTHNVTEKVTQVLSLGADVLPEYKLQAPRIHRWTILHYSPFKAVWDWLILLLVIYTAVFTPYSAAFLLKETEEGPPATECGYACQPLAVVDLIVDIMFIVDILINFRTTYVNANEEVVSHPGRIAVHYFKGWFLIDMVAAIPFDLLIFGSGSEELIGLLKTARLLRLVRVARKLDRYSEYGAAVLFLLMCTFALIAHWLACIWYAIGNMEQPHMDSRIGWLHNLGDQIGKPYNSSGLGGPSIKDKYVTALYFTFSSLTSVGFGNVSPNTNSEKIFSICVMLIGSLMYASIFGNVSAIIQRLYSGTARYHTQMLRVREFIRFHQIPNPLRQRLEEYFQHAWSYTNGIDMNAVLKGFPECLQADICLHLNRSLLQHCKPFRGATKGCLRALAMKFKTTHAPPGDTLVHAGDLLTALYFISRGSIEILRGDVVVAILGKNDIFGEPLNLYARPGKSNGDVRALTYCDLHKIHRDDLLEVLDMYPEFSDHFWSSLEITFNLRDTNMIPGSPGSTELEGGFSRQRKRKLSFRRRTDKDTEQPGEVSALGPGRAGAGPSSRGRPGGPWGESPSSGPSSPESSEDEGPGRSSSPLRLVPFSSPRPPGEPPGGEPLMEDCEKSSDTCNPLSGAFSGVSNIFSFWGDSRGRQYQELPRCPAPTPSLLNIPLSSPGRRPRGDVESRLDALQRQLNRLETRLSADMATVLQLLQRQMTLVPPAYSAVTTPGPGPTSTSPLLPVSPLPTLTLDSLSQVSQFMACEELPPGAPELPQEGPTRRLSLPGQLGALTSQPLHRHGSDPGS

Row | SMILES | hERG current change (%, negative = inhibition) at 1uM [%]
1 | COC(=O)c1sccc1NC(=O)C1CC2CCC1C2 (centres unmarked) | 20.7
2 | O=C(Nc1ccc(F)cc1F)N1CCCCCC1 | 12.6
3 | O=C(/C=C/c1ccc(O)cc1)c1ccc(O)cc1O | 12.5
4 | COc1ccc(NC(=O)C2CCC(=O)N2)cc1 (centres unmarked) | 3.06
5 | Nc1ccc(S(=O)(=O)NC(Cc2ccccc2)C(=O)O)cc1 (centres unmarked) | 14.7
6 | Cc1sc(=NC(=O)c2ccco2)n(C)c1-c1ccccc1 | 5.23
7 | Cc1cccc(NC(=S)NCCc2ccccc2)n1 | 7.34
8 | COC(=O)c1cc(OC)c(OC)cc1NC(=O)c1c(-c2ccccc2Cl)noc1C | 1.26
9 | COc1ccc(CNCCCSc2ncccn2)cc1OC.Cl | 13.6
10 | Clc1ccc2nc(-c3ccccc3)c(CN3CCOCC3)n2c1 | 6.55
11 | S=C(NCCc1ccccc1)Nc1cnc2ccccc2c1 | 12.5
12 | C#CCOc1nc(OCC#C)nc(OCC#C)n1 | 14
13 | COc1ccc(-c2nc3ccccc3c(=O)n2CCOc2ccccc2C)cc1 | 10.6
14 | Cc1cc(C)n(-c2nc3c(c(=O)[nH]c(=O)n3C)n2Cc2cccc(Br)c2)n1 | 6.8
15 | Nc1ccccc1C#Cc1ccc2[nH]ccc2c1 | 13.1
16 | Cc1cc(C)n(C(=O)COc2ccc([N+](=O)[O-])cc2)n1 | 8.19
17 | COc1cc(CN2CCC(C(=O)N3CCCC(C)C3)CC2)cc(Br)c1O.O=C(O)C(=O)O (centres unmarked) | -3.34
18 | CCOc1cc(/C=C2\SC(N)=NC2=O)ccc1O | 10.3
19 | CC(=O)Oc1ccc(C(C)=O)c2c1OCCO2 | 10.3
20 | COc1ccc2c(c1)CCc1c(C(=O)Nc3c(C)n(C)n(-c4ccccc4)c3=O)noc1-2 | 11.7
21 | Cc1c(C(=O)OCC(=O)Nc2ccc(C(N)=O)cc2)cccc1[N+](=O)[O-] | 11
22 | Cc1ccc(NC(=O)CCC(=O)NNC(=O)COc2ccc([N+](=O)[O-])cc2)c(C)c1 | 12.3
23 | COc1ccc(CNC(=O)CN(Cc2ccc(OC)cc2)C(=O)CCC(=O)Nc2nccs2)cc1 | 10.5

Row | SMILES | hERG current change (%, negative = inhibition) at 1uM [%]
24 | O=C(N/N=C/c1c(O)n(C2CC2)c(=S)[nH]c1=O)c1ccccc1O | 7.97
25 | CCCCCNC(=O)C1CC=CCC1C(=O)O (centres unmarked) | 10.1
26 | CCOC(=O)COc1cccc2c(=O)n(CC(=O)N3CCCc4ccccc43)ccc12 | 14.4
27 | COCCNC(=O)CN(C(=O)c1ccc(N2CCCC2)nc1)c1ccccc1 | 7.3
28 | CC(C)Oc1ccc(C(=O)NCc2ccco2)cc1 | 14.8
29 | Cc1cc(S(=O)(=O)N2CCCC(N3CCOCC3)C2)c(C)cc1Cl (centres unmarked) | 1.19
30 | Cc1nc2ccccc2cc1OCc1ccccc1 | 23.7
31 | Cc1ccccc1NN1C(=O)C=CC1=O | 1.59
32 | C=CCNC(=S)/N=c1\sccn1C | 10.9
33 | COc1ccc(CN(C)Cc2nc3scc(-c4ccccc4)c3c(=O)[nH]2)cc1OC | 10.2
34 | c1ccc2c(c1)Cn1nc(Cc3nc4c(s3)CCCC4)nc1-2 | 5.36
35 | COc1cc2nc(=S)n3[nH]c(CCn4c(C)nc5ccccc54)nc3c2cc1OC | 4.66
36 | CCN1CCN(C(=O)Cn2c(=O)sc3ccccc32)CC1 | 0.639
37 | COc1ccc2c(-c3ccccc3)cc3nnnn3c2c1 | 9.5
38 | CCCCSCCCNC(=O)Nc1ccc(C)c(C)c1 | 7.24
39 | Cc1ccc2nc(SCC(=O)Nc3cccc(Cl)c3)nc(=O)n2c1 | 9.15
40 | O=C1CN(C(=O)c2cnccn2)c2ccccc2N1 | 17.4
41 | O=C(c1cc2cc3ccc(Cl)cc3nc2o1)N1CCC2(CC1)OCCO2 | -0.222
42 | NC(=O)c1ccc(-n2nc(C(F)(F)F)c3c2CCCC3)cc1 | -1.73
43 | O=C(CN1C(=O)NC2(CCCC2)C1=O)N1CCN(S(=O)(=O)c2ccccc2F)CC1 | 9.86
44 | Cl.N=C(N)SCc1cccc2ccccc12 | 2.46
45 | Cc1cccc(-c2nc(CSCC(=O)NCc3cccs3)c(C)o2)c1 | 12.3
46 | O=C(NCc1ccccc1)Nc1cccn(Cc2ccc(Cl)cc2)c1=O | 15.2

Row | SMILES | hERG current change (%, negative = inhibition) at 1uM [%]
47 | O=[N+]([O-])c1cc(-c2nnc(N3CCOCC3)c3ccccc23)ccc1N1CCOCC1 | -8.61
48 | COc1ccc(-c2noc(CSc3nc(-c4ccccc4)cc(=O)[nH]3)n2)cc1OC | 5.68
49 | Cc1ccc2[nH]c3c(NCCCN4CCCC4=O)ncnc3c2c1 | 5.27
50 | C[n+]1cccc(C(=O)NNC(=O)C23CC4CC(CC(C4)C2)C3)c1.[I-] | 17.3
51 | CC[C@@H](C(=O)[C@@H](C)[C@@H](O)[C@H](C)CCc1ccc(C)c(O)c1C(=O)[O-])[C@H]1O[C@](CC)([C@H]2CC[C@](O)(CC)[C@H](C)O2)C[C@@H]1C.[Na+] | 2.26
52 | O=C(COC(=O)C1=COCCO1)Nc1ncc(C(F)(F)F)cc1Cl | 10.8
53 | COc1cc2c(cc1OC)-c1cc(Nc3ccc4c(c3)OCCO4)nc(=O)n1CC2 | 1.71
54 | O=C(/C=C/c1ccc(F)cc1)NC(=S)NNC(=O)c1cnccn1 | 17
55 | CCCCN=C(NNc1ccc(Br)cc1)C(=O)OCC | -0.962
56 | CC(=O)N1CCOc2ccc(S(=O)(=O)N3CCC(C(=O)Nc4ccc(C)cc4C)CC3)cc21 | 17.2
57 | Cc1ccc(-c2nnn(CC(=O)N(CCCO)C(C(=O)NC3CCCC3)c3ccc(F)cc3)n2)o1 (centres unmarked) | 15.9
58 | Cc1ccnc(N2CCC(C(=O)Nc3nnc(C)s3)CC2)n1 | 12.9
59 | CCC(C)(C(=O)Nc1ccccc1C)N(C(=O)CNC(C)=O)c1ccccc1C (centres unmarked) | 10.7
60 | C(=N\Nc1nc(N2CCCCC2)nc(N2CCCCC2)n1)/c1c[nH]c2ccccc12 | 15.5
61 | CCOc1ccc(S(=O)(=O)N(C)CC(=O)NCc2ccco2)cc1 | 9.5
62 | COc1cc(/C=C(\C#N)c2nc3ccccc3[nH]2)ccc1Oc1ccc([N+](=O)[O-])cn1 | 5.4
63 | CCCCn1c(SCC(=O)N2CC(=O)Nc3ccccc32)nnc1-c1ccoc1C | 1.88
64 | COc1ccc(C2=CSC3=C(C(=O)c4cccc(S(=O)(=O)N(C)C)c4)CCN23)cc1 | 1.9
65 | Cc1ccn2cc(CCNS(=O)(=O)c3ccc4ccccc4c3)nc2c1 | -18.9
66 | COc1ccc([C@H]2CC(=O)C=C(c3cc4ccccc4s3)C2)cc1OC | 15.2
67 | Cc1cc(OCc2cc3c(cc2Cl)OCO3)c2c(C)cc(=O)oc2c1 | 7.47
68 | Cl.OC(COc1ccccc1Br)CN1CCNCC1 (centres unmarked) | 4.67
69 | COc1ccc(CNC(=O)c2ccc(NS(=O)(=O)c3c(C)noc3C)cc2)cc1 | 7.58

Row | SMILES | hERG current change (%, negative = inhibition) at 1uM [%]
70 | CC1CCN(C(=O)c2[nH]cnc2C(=O)N[C@@H](C)C(=O)OC(C)(C)C)CC1 | 1.65
71 | O=c1c2ccccc2nc(SCc2ccc(F)cc2Cl)n1CCCN1CCOCC1 | 6.94
72 | CCOC(=O)CSc1nc2c(sc(=S)n2-c2ccccc2OC)c(=O)n1Cc1ccco1 | -3.5
73 | CC(C)=CCc1c(-c2ccc(O)cc2O)oc2cc3c(c(O)c2c1=O)C=CC(C)(C)O3 | 18.8
74 | Cc1ccccc1Nc1nnc(SCc2cc([N+](=O)[O-])cc3c2OCOC3)s1 | -6.51
75 | Cc1cccc(Cn2c(CN3CCN(Cc4ccccc4)CC3)nc3c2c(=O)[nH]c(=O)n3C)c1 | -40.7
76 | O=C1NC(=O)C(=Cc2ccsc2)C(=O)N1 | 8.19
77 | CCC(=O)Nc1cc2nn(-c3ccc(C)cc3)nc2cc1C | 12.5
78 | S=c1[nH]nc(Nc2ccc(Cl)cc2)s1 | 13.8
79 | Cc1ccc(O)c(-c2cc(C(F)(F)F)[nH]n2)c1 | 3.07
80 | O=C(Cc1ccccc1)Nc1nnc(-c2ccccc2)o1 | 8.1
81 | O=c1c2ccccc2nnn1COc1ccc(F)cc1Cl | 14.2
82 | CCc1cccc(OCC2Cn3c(nc4c3c(=O)[nH]c(=O)n4C)O2)c1 (centres unmarked) | 17.1
83 | CCCCN1C(=O)c2ccc(C(=O)Nc3cccc(C)c3C)cc2C1=O | 10.6
84 | CC(C)=CC(=O)NCc1c(Cl)cccc1-n1cccc1 | 21.7
85 | COc1ccccc1CC(=O)Nc1ccc(F)cc1F | 6.65
86 | CCC(=O)c1ccc(OCc2ccc(C(=O)c3ccccc3)cc2)cc1 | 7.18
87 | Cc1cccc(N2CC(C(=O)Nc3ccc(S(=O)(=O)Nc4nccs4)cc3)CC2=O)c1C (centres unmarked) | 15.5
88 | CC(=O)Nc1ccc(N(C(=O)c2ccccn2)C(C(=O)NC2CCCCC2)c2ccc(F)cc2)cc1 (centres unmarked) | 12.2
89 | Cc1cccn2c(=O)c3cc(S(=O)(=O)c4ccc(Br)cc4)c(=N)n(C4CCCC4)c3nc12 | 14.5

Source: article PMC4336329 (PLoS ONE, 2015)
